Test results published in PubChem BioAssay AID1508642 (National Center for Advancing Translational Sciences (NCATS), 2021).
Screen size: about 43,000 compounds; about 200 (0.47%) were called active. The inconclusive results got no clear call from the source; some entries with a clear call stand among them for comparison. Calls follow the shape of the dose curve; as a rule, active = well fitted cell-killing curve with a large enough effect; inconclusive = small, poorly fitted or top-dose-only effect, or effect the other way; inactive = flat fitted curve, though single readings scatter. A potency beside an inconclusive call is a rough fit, not a confirmed value.

Test: Cell viability qHTS assay in S16 Pmp22-F2sN cells; also: nearly all actives have a fitted effect of over 65% in size
Settings: S16 Pmp22-F2sN Schwann cells (luciferase reporters placed in the Pmp22 gene) viability, CellTiter-Glo, 24 h; activity change, negative = cytotoxicity: at 57.5 µM (top of the series)
Summary of the method: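 Rat S16 Schwann reporter line, 24 h treatment with library compounds delivered at 23 nL per well. Cell viability by CellTiter-Glo luminescence.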
% is scaled to controls: 0 for no effect and ±100 for the full control effect; potency is read from the fitted curve at half-maximal effect; tags tell the direction and shape of the fitted curve.

Row | SMILES | Potency | activity change, negative = cytotoxicity
1 | COc1cc(OC)c(NC(=O)Cc2ccc(-n3c(C)nc4cccnc43)cc2)cc1Cl | inconclusive: 22.4 µM [cytotoxic, single point] | 
2 | CCC1=Nc2cc(C(=O)NCc3ccc(C)cc3)ccc2Sc2ccc(C)cc21 |  | inactive: -7.97%
3 | CCS(=O)(=O)c1c(Nc2cc(C)ccc2C)sc(C(=O)c2ccccc2)c1N | inconclusive: 31.6 µM [cytotoxic, single point] | 
4 | COc1cccc(-c2nc(S(=O)(=O)c3ccccc3)c(N3CCC(C)CC3)o2)c1 | inconclusive: 39.8 µM [cytotoxic, single point] | 
5 | CC1=C(C(=O)Nc2ccccc2)C(c2cc(Br)ccc2F)n2ncc(C(=O)Nc3ccccc3)c2N1 (stereo not drawn) |  | inactive: -17.3%
6 | O=c1c2ccccc2nc(-c2ccc(Cl)cc2)n1CCCOc1ccccc1F | inconclusive: 39.8 µM [rising, partial curve, poor fit] | 
7 | CCCCOc1ccc(C(=O)N(Cc2ccco2)Cc2ccco2)cc1 | inconclusive: 39.8 µM [cytotoxic, single point] | 
8 | COc1ccc(-n2c(=O)c3c(c4cc(OC)ccc4n3C)n(CCC(C)C)c2=O)cc1 |  | inactive: 8.4%
9 | COc1cc(OC)c(NC(=O)Nc2ccc3c(c2)N(C)C(=O)c2ccccc2S3)cc1Cl | inconclusive: 28.2 µM [cytotoxic, single point] | 
10 | COC(=O)c1c(-c2ccc(Cl)cc2)noc1N1CCN(c2ccc(C(C)=O)cc2)CC1 | inconclusive: 7.08 µM [cytotoxic, partial curve, poor fit] | 
11 | CCCCc1ccc(NC(=O)CSc2nc3ccccc3nc2N2CCCCC2)cc1 | inconclusive: 0.251 µM [cytotoxic, full curve, poor fit] | 
12 | CCOc1ccc(NC(=O)C(CC)n2nc(C)c3c(C)n(-c4ccccc4)nc3c2=O)cc1 (stereo not drawn) | inconclusive: 31.6 µM [cytotoxic, single point] | 
13 | CCOc1ccc(NC(=O)N2CC3CCCN3c3ccccc32)cc1 (stereo not drawn) | inconclusive: 35.5 µM [cytotoxic, single point] | 
14 | CC(=O)c1cccc(NS(=O)(=O)c2ccc3[nH]c4c(c3c2)CCCCC4)c1 | inconclusive: 31.6 µM [cytotoxic, single point] | 
15 | Cc1cn2c(=O)c(S(=O)(=O)Nc3ccc(OC(F)(F)F)cc3)c(C)nc2s1 | inconclusive: 35.5 µM [cytotoxic, single point] | 
16 | O=C(Nc1nc2n(n1)C(c1ccc(F)cc1)C=C(c1ccc(Cl)cc1)N2)c1ccc([N+](=O)[O-])cc1 (stereo not drawn) | inconclusive: 39.8 µM [cytotoxic, single point] | 
17 | COc1ccccc1CC(=O)Nc1ccc2nc(Nc3cccc(C(F)(F)F)c3)cc(C)c2c1 | inconclusive: 39.8 µM [cytotoxic, single point] | 
18 | O=C(NCc1ccco1)c1ccc2c(c1)N(Cc1ccccc1)C(=O)c1ccccc1S2 | inconclusive: 20 µM [cytotoxic, single point] | 
19 | Cc1cc(C)c(S(=O)(=O)NCCc2sc3nc(-c4ccc(F)cc4)nn3c2C)c(C)c1 | inconclusive: 31.6 µM [cytotoxic, single point] | 

Row | SMILES | Potency | activity change, negative = cytotoxicity
20 | O=C(NC1CCCCC1)c1ccc(CSc2nc3cccnc3n2Cc2cccc(F)c2)cc1 | inconclusive: 39.8 µM [cytotoxic, single point] | 
21 | Cc1ccc(NC(=O)c2sc3ncnc(N(C)C4CCCCC4)c3c2C)c(C)c1 |  | inactive: -1.82%
22 | CCOc1ccc(NC(=O)CCc2c(C)nc3cc(-c4ccccc4OC)nn3c2C)cc1 | inconclusive: 1.12 µM [rising, partial curve, poor fit] | 
23 | O=S(=O)(NCC(c1cccs1)S(=O)(=O)c1ccccc1)c1ccccc1 (stereo not drawn) | active: 10 µM | 
24 | Cc1ccc2c(=O)cc(C(=O)NCc3ccccc3)oc2c1 | inconclusive: 35.5 µM [cytotoxic, single point] | 
25 | COc1ccc(CNC(=O)C2CCCN(S(=O)(=O)c3ccc4c(ccn4C)c3)C2)c(OC)c1 (stereo not drawn) | inconclusive: 31.6 µM [cytotoxic, single point] | 
26 | CCOC(=O)c1c(C)[nH]c(C)c1S(=O)(=O)N1CCCC(C(=O)Nc2cc(C)ccc2C)C1 (stereo not drawn) | inconclusive: 3.55 µM [cytotoxic, full curve, poor fit] | 
27 | COc1cc(OC)c(NC(=O)N2CCc3c([nH]c4ccccc34)C2c2ccccc2F)cc1Cl (stereo not drawn) | inconclusive: 39.8 µM [cytotoxic, partial curve, poor fit] | 
28 | O=C(Nc1ccccc1F)c1ccc(Cn2nc(N3CCN(c4ccccc4)CC3)ccc2=O)o1 |  | inactive: -2.64%
29 | COc1cccc(C2CC(=O)Nc3c2ccc(C)c3C)c1OC (stereo not drawn) | inconclusive: 28.2 µM [cytotoxic, partial curve, poor fit] | 
30 | COc1ccc(S(=O)(=O)c2c(Nc3ccccc3F)sc(C(=O)c3cccc(OC)c3)c2N)cc1 | inconclusive: 10 µM [cytotoxic, partial curve, poor fit] | 
31 | O=C(Nc1ccccc1C(F)(F)F)c1ncoc1-c1ccco1 |  | inactive: 12.8%
32 | COc1ccc(-c2cc(C(F)(F)F)nc(SCCC(=O)Nc3ccc(NC(C)=O)cc3)n2)cc1 | inconclusive: 8.91 µM [cytotoxic, full curve, poor fit] | 
33 | COCCNc1nc2c(c(=O)n(C)c(=O)n2C)n1Cc1c(F)cccc1Cl | inconclusive: 15.8 µM [cytotoxic, partial curve, poor fit] | 
34 | COc1ccc(Cl)cc1NC(=O)CSc1cn(CC(=O)N2CCCCC2)c2ccccc12 | inconclusive: 39.8 µM [cytotoxic, single point] | 
35 | CCOc1ccc(CN2C(=O)c3ccccc3Sc3ccc(C(=O)NCc4ccco4)cc32)cc1 |  | inactive: -1.82%
36 | O=C1CC(c2c(Cl)cccc2Cl)c2c(ccc3ccccc23)N1 (stereo not drawn) | inconclusive: 17.8 µM [rising, single point] | 
37 | CC1=C(C(=O)Nc2ccccc2Cl)C(c2cccc(O)c2)n2ncnc2N1 (stereo not drawn) | inconclusive: 0.1 µM [rising, full curve, poor fit] | 
38 | Cc1ccc(-n2ncc(C(=O)NCCN3CCc4ccccc4C3)c2C2CCN(C(=O)OC(C)(C)C)CC2)cc1C | inconclusive: 28.2 µM [cytotoxic, single point] | 
